Source: publication PMC2739277
Results are given in words; binding and its absence hold for the method and conditions named. For part of these data: Binding seen in cells or lysates may run through a third protein. Some entries that bind do so weakly or less than the wild type. For part of these data: Tags and fused reporters may be left off the sequences shown.

Chains of the proteins cited; added tags and fusions are not shown. Residues count along the entry.
UniProt P35568, residues 12-115: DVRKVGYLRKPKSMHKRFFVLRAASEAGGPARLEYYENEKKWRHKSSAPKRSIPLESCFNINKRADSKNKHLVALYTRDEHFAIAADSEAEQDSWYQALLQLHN
UniProt Q96CW1: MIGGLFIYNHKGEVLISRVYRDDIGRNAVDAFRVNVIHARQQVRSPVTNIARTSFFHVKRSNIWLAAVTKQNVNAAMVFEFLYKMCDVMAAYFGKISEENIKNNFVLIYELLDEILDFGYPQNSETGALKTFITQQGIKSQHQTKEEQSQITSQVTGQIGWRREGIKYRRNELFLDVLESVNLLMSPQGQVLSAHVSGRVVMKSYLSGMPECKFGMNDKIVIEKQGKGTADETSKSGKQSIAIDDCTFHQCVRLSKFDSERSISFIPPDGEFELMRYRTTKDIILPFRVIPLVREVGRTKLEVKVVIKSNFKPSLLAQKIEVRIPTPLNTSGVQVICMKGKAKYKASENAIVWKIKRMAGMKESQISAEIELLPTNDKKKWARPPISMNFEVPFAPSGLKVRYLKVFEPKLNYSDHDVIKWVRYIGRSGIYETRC

Legend:
PLD1 (R158Q) (rat) = biological target: T1, PLD1 (R158Q) (rat) (UniProt P70496); assay: pull-down; PLD1 constructs transiently expressed in HeLa cells, immunoprecipitated and incubated with purified GST-μ2 in the presence of 20 nM C6-PA; only the binder purified
T1 sequence: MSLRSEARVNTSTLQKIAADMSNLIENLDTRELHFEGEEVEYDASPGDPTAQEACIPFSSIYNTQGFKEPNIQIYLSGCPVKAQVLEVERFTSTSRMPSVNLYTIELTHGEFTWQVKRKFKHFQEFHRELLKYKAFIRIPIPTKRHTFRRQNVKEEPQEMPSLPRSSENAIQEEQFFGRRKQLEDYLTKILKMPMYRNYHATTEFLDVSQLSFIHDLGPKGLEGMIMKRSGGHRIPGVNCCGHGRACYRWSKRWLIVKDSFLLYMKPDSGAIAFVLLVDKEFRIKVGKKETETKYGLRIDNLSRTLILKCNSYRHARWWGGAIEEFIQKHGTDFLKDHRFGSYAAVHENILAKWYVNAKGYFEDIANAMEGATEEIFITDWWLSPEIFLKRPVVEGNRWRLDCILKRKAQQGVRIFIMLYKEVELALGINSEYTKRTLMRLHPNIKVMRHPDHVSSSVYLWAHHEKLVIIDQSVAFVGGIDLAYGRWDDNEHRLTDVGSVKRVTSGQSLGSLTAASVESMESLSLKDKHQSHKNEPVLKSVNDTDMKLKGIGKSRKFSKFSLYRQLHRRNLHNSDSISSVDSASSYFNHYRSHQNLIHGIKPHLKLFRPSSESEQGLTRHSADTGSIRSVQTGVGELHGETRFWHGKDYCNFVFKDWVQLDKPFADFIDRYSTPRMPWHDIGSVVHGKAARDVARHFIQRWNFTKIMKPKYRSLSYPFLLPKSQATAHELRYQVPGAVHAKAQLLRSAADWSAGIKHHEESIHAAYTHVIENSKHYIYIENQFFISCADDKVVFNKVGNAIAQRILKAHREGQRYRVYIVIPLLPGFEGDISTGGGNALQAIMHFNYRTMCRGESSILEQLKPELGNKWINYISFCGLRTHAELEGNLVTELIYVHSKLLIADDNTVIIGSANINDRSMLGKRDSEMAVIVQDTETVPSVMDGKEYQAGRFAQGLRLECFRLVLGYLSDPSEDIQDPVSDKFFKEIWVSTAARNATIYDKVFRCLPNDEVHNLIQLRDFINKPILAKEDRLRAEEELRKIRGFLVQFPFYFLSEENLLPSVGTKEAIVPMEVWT

purified PLD1 = biological target: T2, purified PLD1 (UniProt P70496); assay: pull-down; purified PLD1 immobilized with anti-PLD antibody, incubated with purified GST-μ2; 500 µl buffer A (50 mM Hepes-NaOH pH 7.5, 3 mM MgCl2, 2 mM CaCl2, 3 mM EGTA, 80 mM KCl) with 1% Triton X-100, 4°C, 3 h; without or with C6-PA (PA increased the interaction in a dose-dependent manner); both purified
T2 sequence: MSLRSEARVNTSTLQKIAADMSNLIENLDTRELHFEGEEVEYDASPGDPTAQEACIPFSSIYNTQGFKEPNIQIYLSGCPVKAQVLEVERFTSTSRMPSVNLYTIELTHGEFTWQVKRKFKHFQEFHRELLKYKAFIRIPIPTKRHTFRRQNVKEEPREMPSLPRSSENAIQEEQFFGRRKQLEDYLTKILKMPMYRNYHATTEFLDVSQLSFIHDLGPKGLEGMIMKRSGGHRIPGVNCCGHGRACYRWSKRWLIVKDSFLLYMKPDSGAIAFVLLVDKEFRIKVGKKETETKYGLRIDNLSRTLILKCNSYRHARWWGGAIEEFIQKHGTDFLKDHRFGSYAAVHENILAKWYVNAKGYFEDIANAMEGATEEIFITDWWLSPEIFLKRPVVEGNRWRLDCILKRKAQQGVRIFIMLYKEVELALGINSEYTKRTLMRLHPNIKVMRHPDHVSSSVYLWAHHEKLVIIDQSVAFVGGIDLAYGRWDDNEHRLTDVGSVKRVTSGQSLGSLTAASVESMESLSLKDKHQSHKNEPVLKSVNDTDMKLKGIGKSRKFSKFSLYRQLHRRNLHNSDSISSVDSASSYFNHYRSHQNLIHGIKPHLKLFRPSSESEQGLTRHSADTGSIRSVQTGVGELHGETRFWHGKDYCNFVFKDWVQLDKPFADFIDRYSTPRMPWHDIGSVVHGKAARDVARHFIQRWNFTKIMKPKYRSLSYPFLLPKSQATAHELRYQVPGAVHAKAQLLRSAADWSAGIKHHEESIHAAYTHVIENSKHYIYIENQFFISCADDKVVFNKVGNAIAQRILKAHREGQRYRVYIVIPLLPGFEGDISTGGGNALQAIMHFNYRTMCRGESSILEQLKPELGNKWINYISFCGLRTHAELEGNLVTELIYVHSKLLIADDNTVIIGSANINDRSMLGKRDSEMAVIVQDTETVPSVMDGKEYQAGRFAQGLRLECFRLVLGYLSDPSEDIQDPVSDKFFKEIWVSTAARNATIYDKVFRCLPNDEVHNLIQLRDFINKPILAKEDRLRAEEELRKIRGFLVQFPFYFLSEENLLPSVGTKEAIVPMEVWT

[1] = biological target: GST fusion PH domain of IRS-1 (UniProt P35568); assay: pull-down; same amounts of GST fusion PLD1 fragments or GST fusion PH domains incubated with purified μ2; western blotting; both purified
[2] = biological target: T3, GST fusion PH domain of dynamin-1 (UniProt Q05193); assay: as above
T3 sequence: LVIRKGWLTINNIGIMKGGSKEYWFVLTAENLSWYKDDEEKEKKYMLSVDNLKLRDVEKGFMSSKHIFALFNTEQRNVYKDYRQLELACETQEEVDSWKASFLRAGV

[3] = biological target: T4, GST fusion PLD1 PH domain (UniProt P70496); assay: as above
T4 sequence: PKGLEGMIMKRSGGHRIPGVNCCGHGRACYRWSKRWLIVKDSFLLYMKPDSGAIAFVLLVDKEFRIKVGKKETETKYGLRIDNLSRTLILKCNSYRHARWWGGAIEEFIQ

GST-fusion PLD1 296–312 = biological target: T5, GST-fusion PLD1 296–312 (UniProt P70496); assay: as above
T5 sequence: GLRIDNLSRTLILKCNS

[4] = biological target: epidermal growth factor receptor (EGFR), endogenous in HeLa cells (human (endogenous in HeLa)) (UniProt P00533); assay: co-IP; extracts of EGF-treated HeLa cells transfected with PLD1 constructs, immunoprecipitated with anti-EGFR antibody and immunoblotted

**Q.** With GST-μ2 (from UniProt Q96CW1 1-435) as the molecule, how does the binding (PLD1 (R158Q) (rat)) read?
**A.** Its binding is “no binding”.

**Q.** What about the binding (purified PLD1) of the same molecule?
**A.** Its binding is “binds”.

**Q.** For purified μ2 (from UniProt Q96CW1 1-435), which binding [1] is on record?
**A.** The binding was “no binding”.

**Q.** And the binding [2]?
**A.** The binding was “no binding”.

**Q.** And the binding [3]?
**A.** Its binding is “binds”.

**Q.** What about the binding (GST-fusion PLD1 296–312) of the same molecule?
**A.** The binding was “binds”.

B1: lipase inactive mutant PLD1 (K898R) (enzyme, UniProt P70496 1-1074)
chain: MSLRSEARVNTSTLQKIAADMSNLIENLDTRELHFEGEEVEYDASPGDPTAQEACIPFSSIYNTQGFKEPNIQIYLSGCPVKAQVLEVERFTSTSRMPSVNLYTIELTHGEFTWQVKRKFKHFQEFHRELLKYKAFIRIPIPTKRHTFRRQNVKEEPREMPSLPRSSENAIQEEQFFGRRKQLEDYLTKILKMPMYRNYHATTEFLDVSQLSFIHDLGPKGLEGMIMKRSGGHRIPGVNCCGHGRACYRWSKRWLIVKDSFLLYMKPDSGAIAFVLLVDKEFRIKVGKKETETKYGLRIDNLSRTLILKCNSYRHARWWGGAIEEFIQKHGTDFLKDHRFGSYAAVHENILAKWYVNAKGYFEDIANAMEGATEEIFITDWWLSPEIFLKRPVVEGNRWRLDCILKRKAQQGVRIFIMLYKEVELALGINSEYTKRTLMRLHPNIKVMRHPDHVSSSVYLWAHHEKLVIIDQSVAFVGGIDLAYGRWDDNEHRLTDVGSVKRVTSGQSLGSLTAASVESMESLSLKDKHQSHKNEPVLKSVNDTDMKLKGIGKSRKFSKFSLYRQLHRRNLHNSDSISSVDSASSYFNHYRSHQNLIHGIKPHLKLFRPSSESEQGLTRHSADTGSIRSVQTGVGELHGETRFWHGKDYCNFVFKDWVQLDKPFADFIDRYSTPRMPWHDIGSVVHGKAARDVARHFIQRWNFTKIMKPKYRSLSYPFLLPKSQATAHELRYQVPGAVHAKAQLLRSAADWSAGIKHHEESIHAAYTHVIENSKHYIYIENQFFISCADDKVVFNKVGNAIAQRILKAHREGQRYRVYIVIPLLPGFEGDISTGGGNALQAIMHFNYRTMCRGESSILEQLKPELGNKWINYISFCGLRTHAELEGNLVTELIYVHSRLLIADDNTVIIGSANINDRSMLGKRDSEMAVIVQDTETVPSVMDGKEYQAGRFAQGLRLECFRLVLGYLSDPSEDIQDPVSDKFFKEIWVSTAARNATIYDKVFRCLPNDEVHNLIQLRDFINKPILAKEDRLRAEEELRKIRGFLVQFPFYFLSEENLLPSVGTKEAIVPMEVWT
**Q.** With B1 as the molecule, how does the binding [4] read?
**A.** The binding was “binds”.

B2: PLD1 (R158Q) (enzyme, UniProt P70496 1-1074)
chain: MSLRSEARVNTSTLQKIAADMSNLIENLDTRELHFEGEEVEYDASPGDPTAQEACIPFSSIYNTQGFKEPNIQIYLSGCPVKAQVLEVERFTSTSRMPSVNLYTIELTHGEFTWQVKRKFKHFQEFHRELLKYKAFIRIPIPTKRHTFRRQNVKEEPQEMPSLPRSSENAIQEEQFFGRRKQLEDYLTKILKMPMYRNYHATTEFLDVSQLSFIHDLGPKGLEGMIMKRSGGHRIPGVNCCGHGRACYRWSKRWLIVKDSFLLYMKPDSGAIAFVLLVDKEFRIKVGKKETETKYGLRIDNLSRTLILKCNSYRHARWWGGAIEEFIQKHGTDFLKDHRFGSYAAVHENILAKWYVNAKGYFEDIANAMEGATEEIFITDWWLSPEIFLKRPVVEGNRWRLDCILKRKAQQGVRIFIMLYKEVELALGINSEYTKRTLMRLHPNIKVMRHPDHVSSSVYLWAHHEKLVIIDQSVAFVGGIDLAYGRWDDNEHRLTDVGSVKRVTSGQSLGSLTAASVESMESLSLKDKHQSHKNEPVLKSVNDTDMKLKGIGKSRKFSKFSLYRQLHRRNLHNSDSISSVDSASSYFNHYRSHQNLIHGIKPHLKLFRPSSESEQGLTRHSADTGSIRSVQTGVGELHGETRFWHGKDYCNFVFKDWVQLDKPFADFIDRYSTPRMPWHDIGSVVHGKAARDVARHFIQRWNFTKIMKPKYRSLSYPFLLPKSQATAHELRYQVPGAVHAKAQLLRSAADWSAGIKHHEESIHAAYTHVIENSKHYIYIENQFFISCADDKVVFNKVGNAIAQRILKAHREGQRYRVYIVIPLLPGFEGDISTGGGNALQAIMHFNYRTMCRGESSILEQLKPELGNKWINYISFCGLRTHAELEGNLVTELIYVHSKLLIADDNTVIIGSANINDRSMLGKRDSEMAVIVQDTETVPSVMDGKEYQAGRFAQGLRLECFRLVLGYLSDPSEDIQDPVSDKFFKEIWVSTAARNATIYDKVFRCLPNDEVHNLIQLRDFINKPILAKEDRLRAEEELRKIRGFLVQFPFYFLSEENLLPSVGTKEAIVPMEVWT
**Q.** With B2 as the molecule, how does the binding [4] read?
**A.** The binding was “binds”.

B3: PLD1 (R304A) (enzyme, UniProt P70496 1-1074)
chain: MSLRSEARVNTSTLQKIAADMSNLIENLDTRELHFEGEEVEYDASPGDPTAQEACIPFSSIYNTQGFKEPNIQIYLSGCPVKAQVLEVERFTSTSRMPSVNLYTIELTHGEFTWQVKRKFKHFQEFHRELLKYKAFIRIPIPTKRHTFRRQNVKEEPREMPSLPRSSENAIQEEQFFGRRKQLEDYLTKILKMPMYRNYHATTEFLDVSQLSFIHDLGPKGLEGMIMKRSGGHRIPGVNCCGHGRACYRWSKRWLIVKDSFLLYMKPDSGAIAFVLLVDKEFRIKVGKKETETKYGLRIDNLSATLILKCNSYRHARWWGGAIEEFIQKHGTDFLKDHRFGSYAAVHENILAKWYVNAKGYFEDIANAMEGATEEIFITDWWLSPEIFLKRPVVEGNRWRLDCILKRKAQQGVRIFIMLYKEVELALGINSEYTKRTLMRLHPNIKVMRHPDHVSSSVYLWAHHEKLVIIDQSVAFVGGIDLAYGRWDDNEHRLTDVGSVKRVTSGQSLGSLTAASVESMESLSLKDKHQSHKNEPVLKSVNDTDMKLKGIGKSRKFSKFSLYRQLHRRNLHNSDSISSVDSASSYFNHYRSHQNLIHGIKPHLKLFRPSSESEQGLTRHSADTGSIRSVQTGVGELHGETRFWHGKDYCNFVFKDWVQLDKPFADFIDRYSTPRMPWHDIGSVVHGKAARDVARHFIQRWNFTKIMKPKYRSLSYPFLLPKSQATAHELRYQVPGAVHAKAQLLRSAADWSAGIKHHEESIHAAYTHVIENSKHYIYIENQFFISCADDKVVFNKVGNAIAQRILKAHREGQRYRVYIVIPLLPGFEGDISTGGGNALQAIMHFNYRTMCRGESSILEQLKPELGNKWINYISFCGLRTHAELEGNLVTELIYVHSKLLIADDNTVIIGSANINDRSMLGKRDSEMAVIVQDTETVPSVMDGKEYQAGRFAQGLRLECFRLVLGYLSDPSEDIQDPVSDKFFKEIWVSTAARNATIYDKVFRCLPNDEVHNLIQLRDFINKPILAKEDRLRAEEELRKIRGFLVQFPFYFLSEENLLPSVGTKEAIVPMEVWT
**Q.** How did the binding [4] turn out when B3 was run?
**A.** The binding was “binds”.
